Reference: a collection of fitness landscapes (doi:10.1126/science.1257360)
Some of the results follow.

B1: PhoQ; a variant is named by its letters at X, in order, P23837 (parent)
chain: MKKLLRLFFPLSLRVRFLLATAAVVLVLSLAYGMVALIGYSVSFDKTTFRLLRGESNLFYTLAKWENNKLHVELPENIDKQSPTMTLIYDENGQLLWAQRDVPWLMKMIQPDWLKSNGFHEIEADVNDTSLLLSGDHSIQQQLQEVREDDDDAEMTHSVAVNVYPATSRMPKLTIVVVDTIPVELKSSYMVWSWFIYVLSANLLLVIPLLWVAAWWSLRPIEALAKEVRELEEHNRELLNPATTRELTSLVRNLNRLLKSERERYDKYRTTLTDLTHSLKTPLXXLQXXLRSLRSEKMSVSDAEPVMLEQISRISQQIGYYLHRASMRGGTLLSRELHPVAPLLDNLTSALNKVYQRKGVNISLDISPEISFVGEQNDFVEVMGNVLDNACKYCLEFVEISARQTDEHLYIVVEDDGPGIPLSKREVIFDRGQRVDTLRPGQGVGLAVAREITEQYEGKIVAGESMLGGARMEVIFGRQHSAPKDE

Variants of: B1
Assay: enrichment ratio after two sorts for PhoP signalling (ratio (wild type AVST 3.29)); higher = more functional
Settings: with PhoP (E. coli)

Point of comparison: TSEC, enrichment ratio 0.526. Against it:
- IKER — lower, ≤ 0.25
- IKTW — lower, ≤ 0.25
- FYFN — lower, ≤ 0.25
- SWNW — lower, ≤ 0.25
- HRMG — lower, ≤ 0.25
- QKAM — lower, ≤ 0.25
- QMQP — lower, ≤ 0.25
- SKIK — lower, ≤ 0.25
- EAEI — lower, ≤ 0.25
- WPHL — lower, ≤ 0.25
- QQQC — lower, ≤ 0.25
- NSAW — lower, ≤ 0.25
- WCCL — lower, ≤ 0.25
- PSRR — lower, ≤ 0.25
- LEEY — lower, ≤ 0.25
- NDGH — lower, ≤ 0.25
- TQCC — higher, 65
- SRYA — lower, ≤ 0.25
- WYPT — lower, ≤ 0.25
- WDFS — lower, ≤ 0.25
- HTSL — higher, 0.568
- HLPV — lower, ≤ 0.25
- FSGT — lower, ≤ 0.25
- HEVI — lower, ≤ 0.25
- RPCR — lower, ≤ 0.25
- KQHR — lower, ≤ 0.25
- FTYL — lower, ≤ 0.25
- MWQP — lower, ≤ 0.25
- GVGP — lower, ≤ 0.25
- SVIY — lower, ≤ 0.25
- TNTI — higher, 15.8
- YTRI — lower, ≤ 0.25
- KTLC — lower, ≤ 0.25
- WPRV — lower, ≤ 0.25
- YPCG — lower, ≤ 0.25
- GNSK — lower, ≤ 0.25
- RIQM — lower, ≤ 0.25
- TVIH — lower, ≤ 0.25
- NCSC — lower, 0.253
- IGPN — lower, ≤ 0.25
- PTMR — lower, ≤ 0.25
- QYWL — lower, ≤ 0.25
- VPVA — lower, ≤ 0.25
- PRLC — lower, ≤ 0.25
- NRLW — lower, ≤ 0.25
- PVWE — lower, ≤ 0.25
- NNYE — lower, ≤ 0.25
- RKDL — lower, ≤ 0.25
- QENK — lower, ≤ 0.25
- PCSG — lower, ≤ 0.25
- FQMW — lower, ≤ 0.25
- HPWG — lower, ≤ 0.25
- ASAF — higher, 15.1
- RKVK — lower, ≤ 0.25
- HTMD — lower, ≤ 0.25
- SFTP — lower, ≤ 0.25
- ELLG — lower, ≤ 0.25
- DEWM — lower, ≤ 0.25
- NVQY — lower, ≤ 0.25
- FGVA — lower, ≤ 0.25
- GMWP — lower, ≤ 0.25
- ARPF — lower, ≤ 0.25
- ASLC — higher, 16.7
- NSTD — lower, ≤ 0.25
- GEHC — lower, ≤ 0.25
- AFFT — higher, 1.38
- DRTM — lower, ≤ 0.25
- TSWM — higher, 16.2
- LACR — lower, ≤ 0.25
- MEGM — lower, ≤ 0.25
- TISG — higher, 19.4
- MVTV — lower, ≤ 0.25
- RMIK — lower, ≤ 0.25
- QYLW — lower, ≤ 0.25
- RYTS — lower, ≤ 0.25
- YWSY — lower, ≤ 0.25
- FDRE — lower, ≤ 0.25
- YELS — higher, 14.9
- LLWV — lower, ≤ 0.25
- TETF — higher, 9.65
- SDTL — lower, ≤ 0.25
- LWWE — lower, ≤ 0.25
- IGYQ — lower, ≤ 0.25
- DKLS — higher, 0.778
- DRAT — lower, ≤ 0.25
- TPPN — lower, ≤ 0.25
- KPKG — lower, ≤ 0.25
- IYWY — lower, ≤ 0.25
- QGSC — higher, 12
- NNIF — lower, ≤ 0.25
- IKNI — lower, ≤ 0.25
- WGEF — lower, ≤ 0.25
- NWNH — lower, ≤ 0.25
- PHKV — lower, ≤ 0.25
- MNED — lower, ≤ 0.25
- TEGL — higher, 13.2
- RCHQ — lower, ≤ 0.25
- TQMY — higher, 12.5
- TDIH — higher, 2
- FAWH — lower, ≤ 0.25
- IYNK — lower, ≤ 0.25
- GKDD — lower, ≤ 0.25
- RDPI — lower, ≤ 0.25
- WNCD — lower, ≤ 0.25
- LMSN — lower, ≤ 0.25
- NHGA — lower, ≤ 0.25
- DPTV — lower, ≤ 0.25
- PGDA — lower, ≤ 0.25
- IEFM — lower, ≤ 0.25
- HTGY — lower, ≤ 0.25
- EYMD — lower, ≤ 0.25
- MPAW — lower, ≤ 0.25
- VQWM — lower, ≤ 0.25
- NMSA — lower, ≤ 0.25
- QLLG — lower, 0.299
- QSLC — lower, ≤ 0.25
- ENYM — lower, ≤ 0.25
- YFYS — lower, ≤ 0.25
- KPLS — lower, ≤ 0.25
- PFYL — lower, ≤ 0.25
- ALVD — lower, ≤ 0.25
- FMKI — lower, ≤ 0.25
- GSTD — lower, ≤ 0.25
- KDFV — lower, ≤ 0.25
- HPAF — lower, ≤ 0.25
- GGQS — lower, ≤ 0.25
- AKPM — lower, ≤ 0.25
- HCSM — lower, ≤ 0.25
- LTEA — lower, ≤ 0.25
- NDMI — higher, 5.32
- ASPL — higher, 1.12
- GTTP — lower, ≤ 0.25
- DIAN — higher, 2.1
- PYID — lower, ≤ 0.25
- VHMP — lower, ≤ 0.25
- VCCG — higher, 1.29
- TFPG — lower, ≤ 0.25
- AMVG — lower, ≤ 0.25
- RNVR — lower, ≤ 0.25
- WYTT — lower, ≤ 0.25
- SMGW — lower, ≤ 0.25
- KMVC — lower, ≤ 0.25
- LTTG — lower, ≤ 0.25
- SFSK — lower, ≤ 0.25
- QRLC — lower, ≤ 0.25
- TRLW — lower, ≤ 0.25
- RCRP — lower, ≤ 0.25
- ELTD — lower, ≤ 0.25
- WEIV — lower, ≤ 0.25
- TASI — higher, 12.5
- YKHI — lower, ≤ 0.25
- EMMQ — lower, ≤ 0.25
